{"source": "PubChem BioAssay AID463173", "about": "(ICCB-Longwood Screening Facility, Harvard Medical School, 2010)", "note": "Screen size: about 52,000 compounds; about 1,700 (3.3%) were called active. Cut-off read from the data, not from the text of the source: active = survival mostly below about 52% (no sharp cut-off); inactive = mostly above about 56%. The list shows a part of the results."}
{"tested_on": "Wild type", "assay": "S. aureus survival, RN4220 and DeltatarO strains – OD600, teichoic acid synthesis inhibitors, primary screen (AID 463173)", "details": "S. aureus RN4220 wild type/DeltatarO growth, OD600, 18 h, hits give low values, screened at 18.75 µg/mL (by protocol)"}
{"smiles": "CCCCSC1=NC(C)(C)CC(C)O1", "note": "(stereo not drawn)", "survival": "inactive: 103%"}
{"smiles": "CC1SC(NC(=O)COc2ccccc2)=NC1=O", "note": "(stereo not drawn)", "survival": "inactive: 110%"}
{"smiles": "COc1cccc(C(=O)Nc2ccc3nc(N4CCC(C)CC4)cc(C)c3c2)c1", "survival": "inactive: 57%"}
{"smiles": "O=C(COC(=O)c1cccc(NC(=O)c2ccc(Br)cc2)c1)c1ccc(Br)cc1", "survival": "inactive: 85%"}
{"smiles": "CCOC(=O)c1[nH]c2c(c1Cc1ccccc1OC)C(=O)CC(c1ccc(OCC)cc1)C2", "note": "(stereo not drawn)", "survival": "inactive: 110%"}
{"smiles": "O=C(NCc1ccc2c(c1)OCO2)c1ccccc1Cl", "survival": "inactive: 97%"}
{"smiles": "COc1ccc(C(=O)CCC(=O)Nc2ccc(OC)c(Cl)c2)cc1", "survival": "inactive: 91%"}
{"smiles": "Cc1ccc(S(=O)(=O)c2nc(S(C)(=O)=O)sc2NCc2ccccc2)cc1", "survival": "inactive: 88%"}
{"smiles": "CCOC(=O)c1c(C)oc2nc(C)nc(NCCc3ccc(SC)cc3)c12", "survival": "inactive: 75%"}
{"smiles": "CC(C)COC(=O)Cc1c(O)c2ccccc2[nH]c1=O", "survival": "inactive: 113%"}
{"smiles": "COc1cc(NC(=O)Cn2nc(-c3ccc(C)c(C)c3)ccc2=O)cc(OC)c1", "survival": "inactive: 76%"}
{"smiles": "CCN(CC)S(=O)(=O)c1ccc2c(c1)N(CC(=O)Nc1ccc(C)cc1C)C(=O)C1CCCN21", "note": "(stereo not drawn)", "survival": "inactive: 82%"}
{"smiles": "CC(C)NC(=O)c1ccccc1NC(=O)c1nsc2ccccc12", "survival": "inactive: 53%"}
{"smiles": "COc1ccccc1N1CCN(c2nc3ccc(C)cc3n3nnnc23)CC1", "survival": "inactive: 133%"}
{"smiles": "COc1ccc(C2=CC(c3cccc(C)c3)n3nnnc3N2)cc1", "note": "(stereo not drawn)", "survival": "inactive: 71%"}
{"smiles": "CCCCn1cc(S(=O)(=O)c2ccc(F)cc2)c(=O)c2ccccc21", "survival": "inactive: 83%"}
{"smiles": "COc1ccccc1CNC(=O)c1ccc(-c2nc(CS(=O)c3ccccc3)c(C)o2)cc1", "note": "(stereo not drawn)", "survival": "inactive: 71%"}
{"smiles": "Cc1ccc(Cl)cc1NC(=O)CN1C(=O)COc2ccc(S(=O)(=O)N3CCOCC3)cc21", "survival": "inactive: 108%"}
{"smiles": "CCOc1ccc2nc(N3CCCC(C(=O)Nc4cccc(Cl)c4C)C3)sc2c1", "note": "(stereo not drawn)", "survival": "inactive: 81%"}
{"smiles": "CCc1cc2c(cc3c(=O)n(CC(=O)N4CCCCC4)ncn32)s1", "survival": "inactive: 107%"}
{"smiles": "CCCCN(CCCC)CCNC(=O)c1cc(-c2cccnc2)nc2ccc(S(=O)(=O)N3CCC(C)CC3)cc12", "survival": "inactive: 72%"}
{"smiles": "COc1ccc(N(Cc2cccs2)C(=O)COc2ccc(C(C)C)cc2)cc1", "survival": "inactive: 78%"}
{"smiles": "COc1ccc(S(=O)(=O)c2c(Nc3ccc(C)cc3)sc(C(=O)c3ccc4c(c3)OCO4)c2N)cc1", "survival": "inactive: 143%"}
{"smiles": "Cc1cnc2c(c1SCC(=O)Nc1ccc(F)cc1F)c(=O)n(C)c(=O)n2C", "survival": "inactive: 76%"}
{"smiles": "COc1ccc(Cn2c(SCC(N)=O)nc3c(sc4ccccc43)c2=O)cc1", "survival": "inactive: 75%"}
{"smiles": "Cc1cc(F)ccc1NC(=O)C1CCCN(S(=O)(=O)c2ccc3c(c2)CCCC(=O)N3)C1", "note": "(stereo not drawn)", "survival": "inactive: 65%"}
{"smiles": "Cc1ccc2[nH]c3c(=O)n(CC(=O)N4CCN(c5cccc(C(F)(F)F)c5)CC4)ncc3c2c1", "survival": "inactive: 77%"}
{"smiles": "CCOc1ccc(N2C(=O)N(Cc3c(F)cccc3Cl)c3ccccc3S2(=O)=O)cc1", "survival": "inactive: 77%"}
{"smiles": "Cc1ccc(O)c(CNc2cccc3cccnc23)c1", "survival": "inactive: 107%"}
{"smiles": "CN(C)c1ccc(CN(CC2CCCO2)C(=O)c2ccc(Br)cc2)cc1", "note": "(stereo not drawn)", "survival": "inactive: 88%"}
{"smiles": "Cc1ccc(-n2c(=O)c3ccc(C(=O)NCc4ccccc4Cl)cc3n(CC(=O)Nc3cccc(F)c3)c2=O)cc1", "survival": "inactive: 60%"}
{"smiles": "Cc1ccc2[nH]c(CSc3nnc(COc4ccccc4C)n3C)cc(=O)c2c1", "survival": "inactive: 80%"}
{"smiles": "COc1cccc(CNC(=O)CN2C(=O)CSc3c2c(C)nn3-c2ccccc2)c1", "survival": "inactive: 74%"}
{"smiles": "CCCN1C(=O)/C(=c2\\sc3n(c2=O)C(c2ccccc2)C(C(=O)OC)=C(C)N=3)c2ccccc21", "note": "(stereo not drawn)", "survival": "inactive: 106%"}
{"smiles": "O=C(COCc1cc(-c2cccs2)on1)Nc1ccc(OC(F)(F)F)cc1", "survival": "inactive: 124%"}
{"smiles": "Cc1cc2c(cc1C)NC(CC(=O)Nc1ccccc1SC(F)(F)F)C(=O)N2", "note": "(stereo not drawn)", "survival": "inactive: 90%"}
{"smiles": "CCCCOc1ccc(NC(=O)Cn2nnnc2-c2ccccc2F)cc1", "survival": "inactive: 91%"}
{"smiles": "CC1CCCCN1C(=O)CSc1nc(C2CC2)nc2ccccc12", "note": "(stereo not drawn)", "survival": "inactive: 110%"}
{"smiles": "COc1ccc2ncc3c(-c4ccc(C)c(C)c4)nn(CC(=O)NC4CCCCC4)c3c2c1", "survival": "inactive: 88%"}
{"smiles": "Cc1ccc(S(=O)(=O)c2nc(-c3ccco3)oc2SCC(C)C)cc1", "survival": "inactive: 39%"}
{"smiles": "COc1cc(OC)c(NC(=O)Cn2cnc3sc(C)c(S(=O)(=O)N4CCN(C)CC4)c3c2=O)cc1Cl", "survival": "inactive: 142%"}
{"smiles": "CCOc1ccc(Br)cc1CNCCSc1nnnn1-c1ccccc1", "survival": "inactive: 38%"}
{"smiles": "CCc1ccccc1NC(=O)CN1C(=O)c2cccnc2Oc2ccc(Cl)cc21", "survival": "inactive: 126%"}
{"smiles": "c1ccc2c3c([nH]c2c1)-c1nonc1CC3", "survival": "inactive: 120%"}
{"smiles": "CCc1ccc(NC(=O)c2nn(-c3ccc(C)cc3)c(=O)n(C)c2=O)cc1", "survival": "inactive: 73%"}
{"smiles": "CC(C)(C)OC(=O)N1CCC(c2c(C(=O)Nc3ccc4c(c3)OCCO4)cnn2-c2ccccc2)CC1", "survival": "inactive: 80%"}
{"smiles": "COC(=O)NCc1c(C)nn(-c2ccccc2)c1-n1cccc1", "survival": "inactive: 88%"}
{"smiles": "CCOC(=O)c1oc2c(c1C)-c1nn(Cc3ccccc3Cl)cc1CC2", "survival": "inactive: 41%"}
{"smiles": "Cc1ccc(C)c(NC(=O)C(=O)NCCc2csc3nc(-c4ccccc4C)nn23)c1", "survival": "inactive: 129%"}
{"smiles": "c1ccc(CN2CCCC2)nc1", "survival": "inactive: 113%"}
{"smiles": "COc1ccc(CNC(=O)c2cc3c(s2)-c2c(C)cccc2OC3)cc1", "survival": "inactive: 83%"}
{"smiles": "Cc1cccnc1Nc1nc(-c2cccnc2)cs1", "survival": "inactive: 122%"}
{"smiles": "CCCS(=O)(=O)N1CC(=O)N(c2ccccc2C)C(C)(C(=O)NC2CCCC2)C1", "note": "(stereo not drawn)", "survival": "inactive: 73%"}
{"smiles": "CNC(=O)c1sc2ncccc2c1-n1cccc1", "survival": "inactive: 130%"}
{"smiles": "CCOC(=O)N1CCC2(CC1)OC(=O)C(C)=C2C(=O)NCc1cccc(OC)c1", "survival": "inactive: 131%"}
{"smiles": "COc1ccc(NC(=O)CC2C(=O)N(c3ccc(C)cc3)C(=O)N2Cc2cccnc2)cc1", "note": "(stereo not drawn)", "survival": "inactive: 81%"}
{"smiles": "Cn1c(=O)n(-c2cccc(Cl)c2)c(=O)c2sc3ccccc3c21", "survival": "inactive: 71%"}
{"smiles": "Cc1cc(NC(=O)Cn2nc(C)n3cccc3c2=O)ccc1Br", "survival": "inactive: 86%"}
